Assay results reported in a collection of fitness landscapes (doi:10.1016/j.celrep.2020.107928).
Whole data set: some 81,000 sequences, median “one-hybrid fitness for binding parS DNA” near -0.17, cut for the highest 2% near 0.51. The list shows a part of the results.

B1: Caulobacter ParB omega fusion; a variant is named by its letters at X, in order, B8GW30 (parent)
chain: MESVVVGEPGMSEGRRGLGRGLSALLGEVDAAPAQAPGEQLGGSREAPIEILQRNPDQPRRTFREEDLEDLSNSIREKGVLQPILVRPSPDTAGEYQIVAGERAWRAAQRAGLKTVPIMVRELDDLAVLEIGIIENVQRADLNVLEEALSYKVLMEKFERTQENIAQTIGKSXSHVANXMRLLXLPDEVQSYLVSGELTAXHARAIAAAADPVALAKQIIEGGLSVRETEALARKAPNLSAGKSKGGRPPRVKDTDTQALESDLSSVLGLDVSIDHRGSTGTLTITYATLEQLDDLCNRLTRGI

Variants of: B1
Assay: one-hybrid fitness for binding parS DNA (scaled: cognate 1, non-cognate 0); higher = stronger binding
Conditions: with parS DNA site
How it was run: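 Pre- and post-selection plasmids were Illumina-sequenced, three replicate libraries were pooled, and any variant with under 10 reads was removed. The libraries were Caulobacter ParB with four specificity codons randomised, selected in E. coli USO through a HIS3 reporter whose site is 19 bp from the promoter. Cells grew 48 hours at 37°C on M9 without histidine, with 0.1 mM IPTG and 5 mM 3-AT. Fitness is the log change in variant-to-wild-type read ratio, rescaled against cognate and non-cognate.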

one-hybrid fitness for binding parS DNA, 0.923:
RINS

one-hybrid fitness for binding parS DNA, ≤ 0.2:
DLSS
SWKS
MPSI
LELS
WINC
CRMC
LSDW
LTRC
YRNL
FFAI
WMTT
QHPI
PDWN
GHLL
GAAR
QSMW
NAVG
NYKR
FTRL
QLQD
GLVV
CEGG
HPWF
QCVL
ITNT
YSGG
GRNH
PVFY
PNIL
MYGL
ESAS
PNES
AHRK
PIAR
EQGS
HVCY
RDHT
HAKV
LPLK
LYHC
MESS
FVLR
LMMC
APEC
VTQM
PGYR
MKSA
GGCR
TVPG
RNAF
SSSR
SQYG
VYDR
QVLC
QWMY
TQHS
TQID
DYGG
RESR
CIKS
VNVC
PIKG
SHCW
NHPR
NVCG
DRDF
YHCS
AFKF
QVSG
CSCD
QSAV
WMYP
NKVI
RTSV
YILM
QCAE
QVCG
DHER
NLPD
YGAN
GFLA
NSKN
CISC
LHRN
SYVP
PYHS
DACW
INIL
QHSK
RKRD
QRIL
HQRA
RPCR
DRQH
SPQY
YSMV
RRVP
HMCR
FNDN
MSVC
TRLW
TTSW
RNWM
ETCS
QNSI
VKKA
MHQE
RQYE
NRSK
NHEC
FMND
DFAG
YNQG
WIHT
LKSE
AYSG
LVPG
EDFG
RPPT
LTHC
SAQF
LTDN
YSYS
EHFG
EVSD
AFRK
WLMR
KTKY
WSCT
LVLP
DFVD
EMQE
ARYN
QTNT
MMPH
MLPN
SILI
YHYL
LSLQ
TMSY
KDQS
YTLG
VSQA
LYVR
MRRG
MRTF
ECAV
AVWG
KPIG
RGGE
SEHL
AGYG
GGTS
MHPK
MVAC
NVVA
PKVR
LRCP
QRGI
RGAL
AECR
TGLG
GFVT
LVGL
THGA
MIRL
KKAV
VCTY
QVWW
NSLM
VNLG
SPLY
CIHS
VLTV
TKIK
QRGT
QVVW
NTNP
TGIC
QALW
STRV
ITGI
PIGC
FQHI
CSQS
CTAN
QACR
SYLG
RGRD
MDPD
HNLY

one-hybrid fitness for binding parS DNA, 0.442:
RCEY

one-hybrid fitness for binding parS DNA, 0.206:
RIFP

one-hybrid fitness for binding parS DNA, 0.945:
RCGS
